# From the supplement of paper PMC8728848
# Some of the results follow.
# How the values were obtained:
# Test in all cases: glycan array binding signal (z-score within array); higher = stronger binding
# Settings in all cases: glycan notation: IUPAC condensed, linker removed
# [1] = biological target: Fuc(a1-2)[GalNAc(b1-3)]Gal
# In short: (§1)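 Glycan array binding is given as a within-array Z-score, which can be read as non-binding when negative. The arrays, 3228 of them, came from the Consortium for Functional Glycomics database and were retained only where the protein sequence was available. Z-scores were averaged across arrays of the same protein sequence at different concentrations or buffers and across linkers.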
# Fuc(a1-3)GlcNAc = biological target: Fuc(a1-3)GlcNAc
# In short: as §1
# [2] = biological target: Fuc(a1-3)[Gal(b1-4)]Glc6S
# In short: as §1
# [3] = biological target: Fuc(a1-3)[Gal(b1-4)]GlcNAc
# In short: as §1
# [4] = biological target: Fuc(a1-3)[Gal(b1-4)]GlcNAc(b1-2)Man
# In short: as §1
# [5] = biological target: Fuc(a1-3)[Gal(b1-4)]GlcNAc(b1-2)Man(a1-3)[Fuc(a1-3)[Gal(b1-4)]GlcNAc(b1-2)Man(a1-6)]Man(b1-4)GlcNAc(b1-4)GlcNAc
# In short: as §1
# [6] = biological target: Fuc(a1-3)[Gal(b1-4)]GlcNAc(b1-2)Man(a1-3)[Fuc(a1-3)[Gal(b1-4)]GlcNAc(b1-2)Man(a1-6)]Man(b1-4)GlcNAc(b1-4)[Fuc(a1-6)]GlcNAc
# In short: as §1
# [7] = biological target: Fuc(a1-3)[Gal(b1-4)]GlcNAc(b1-3)Gal(b1-3)[Fuc(a1-4)]GlcNAc
# In short: as §1
# [8] = biological target: Fuc(a1-3)[Gal(b1-4)]GlcNAc(b1-3)Gal(b1-4)[Fuc(a1-3)]GlcNAc
# In short: as §1
# [9] = biological target: Fuc(a1-3)[Gal(b1-4)]GlcNAc(b1-3)Gal(b1-4)[Fuc(a1-3)]GlcNAc(b1-3)Gal(b1-4)[Fuc(a1-3)]GlcNAc
# In short: as §1
# [10] = biological target: Fuc(a1-3)[Gal(b1-4)]GlcNAc(b1-3)GalNAc
# In short: as §1
# [11] = biological target: Fuc(a1-3)[Gal(b1-4)]GlcNAc(b1-6)GalNAc
# In short: as §1
# [12] = biological target: Fuc(a1-3)[Gal(b1-4)]GlcNAc(b1-6)[Gal(b1-3)GlcNAc(b1-3)]Gal(b1-4)Glc
# In short: as §1
# [13] = biological target: Fuc(a1-3)[Gal(b1-4)]GlcNAc6S
# In short: as §1
# [14] = biological target: Fuc(a1-3)[Gal3S(b1-4)]Glc
# In short: as §1
# [15] = biological target: Fuc(a1-3)[Gal3S(b1-4)]GlcNAc
# In short: as §1
# [16] = biological target: Fuc(a1-3)[Gal3S(b1-4)]GlcNAc6S
# In short: as §1
# [17] = biological target: Fuc(a1-3)[GalNAc(b1-4)]GlcNAc
# In short: as §1
# [18] = biological target: Fuc(a1-3)[GalNAc(b1-4)]GlcNAc6S
# In short: as §1
# Fuc(a1-4)GlcNAc = biological target: Fuc(a1-4)GlcNAc
# In short: as §1
# Fuc(b1-3)GlcNAc = biological target: Fuc(b1-3)GlcNAc
# In short: as §1
# Gal(a1-2)Gal = biological target: Gal(a1-2)Gal
# In short: as §1
# Gal(a1-3)Gal = biological target: Gal(a1-3)Gal
# In short: as §1
# Gal(a1-3)Gal(b1-3)GlcNAc = biological target: Gal(a1-3)Gal(b1-3)GlcNAc
# In short: as §1
# [19] = biological target: Gal(a1-3)Gal(b1-3)GlcNAc(b1-2)Man
# In short: as §1
# [20] = biological target: Gal(a1-3)Gal(b1-3)GlcNAc(b1-2)Man(a1-3)[Gal(a1-3)Gal(b1-3)GlcNAc(b1-2)Man(a1-6)]Man(b1-4)GlcNAc(b1-4)GlcNAc
# In short: as §1
# [21] = biological target: Gal(a1-3)Gal(b1-3)GlcNAc(b1-3)GalNAc
# In short: as §1
# [22] = biological target: Gal(a1-3)Gal(b1-3)GlcNAc(b1-6)GalNAc
# In short: as §1
# [23] = biological target: Gal(a1-3)Gal(b1-3)[Fuc(a1-4)]GlcNAc(b1-2)Man(a1-3)[Gal(a1-3)Gal(b1-3)[Fuc(a1-4)]GlcNAc(b1-2)Man(a1-6)]Man(b1-4)GlcNAc(b1-4)GlcNAc
# In short: as §1
# Gal(a1-3)Gal(b1-4)Glc = biological target: Gal(a1-3)Gal(b1-4)Glc
# In short: as §1
# Gal(a1-3)Gal(b1-4)GlcNAc = biological target: Gal(a1-3)Gal(b1-4)GlcNAc
# In short: as §1
# [24] = biological target: Gal(a1-3)Gal(b1-4)GlcNAc(b1-2)Man
# In short: as §1
# [25] = biological target: Gal(a1-3)Gal(b1-4)GlcNAc(b1-2)Man(a1-3)[Gal(a1-3)Gal(b1-4)GlcNAc(b1-2)Man(a1-6)]Man(b1-4)GlcNAc(b1-4)GlcNAc
# In short: as §1
# [26] = biological target: Gal(a1-3)Gal(b1-4)GlcNAc(b1-3)GalNAc
# In short: as §1
# [27] = biological target: Gal(a1-3)Gal(b1-4)GlcNAc(b1-6)GalNAc
# In short: as §1
# [28] = biological target: Gal(a1-3)Gal(b1-4)[Fuc(a1-3)]GlcNAc
# In short: as §1
# [29] = biological target: Gal(a1-3)Gal(b1-4)[Fuc(a1-3)]GlcNAc(b1-2)Man(a1-3)[Gal(a1-3)Gal(b1-4)[Fuc(a1-3)]GlcNAc(b1-2)Man(a1-6)]Man(b1-4)GlcNAc(b1-4)GlcNAc
# In short: as §1
# Gal(a1-3)GalNAc = biological target: Gal(a1-3)GalNAc
# In short: as §1
# [30] = biological target: Gal(a1-3)[Gal(a1-4)]Gal(b1-4)GlcNAc
# In short: as §1
# [31] = biological target: Gal(a1-4)Gal(b1-3)GlcNAc(b1-2)Man(a1-3)[Gal(a1-4)Gal(b1-3)GlcNAc(b1-2)Man(a1-6)]Man(b1-4)GlcNAc(b1-4)GlcNAc
# In short: as §1
# Gal(a1-4)Gal(b1-4)Glc = biological target: Gal(a1-4)Gal(b1-4)Glc
# In short: as §1
# Gal(a1-4)Gal(b1-4)GlcNAc = biological target: Gal(a1-4)Gal(b1-4)GlcNAc
# In short: as §1
# [32] = biological target: Gal(a1-4)Gal(b1-4)GlcNAc(b1-2)Man(a1-3)[Gal(a1-4)Gal(b1-4)GlcNAc(b1-2)Man(a1-6)]Man(b1-4)GlcNAc(b1-4)GlcNAc
# In short: as §1
# [33] = biological target: Gal(a1-4)Gal(b1-4)GlcNAc(b1-3)Gal(b1-4)Glc
# In short: as §1
# Gal(a1-4)GlcNAc = biological target: Gal(a1-4)GlcNAc
# In short: as §1
binder,measurement,setting,value
"HBHA-Rv (Mycobacterium tuberculosum), P0A5P6 (protein) MAENSNIDDIKAPLLAALGAADLALATVNELITNLRERAEETRTDTRSRVEESRARLTKLQEDLPEQLTELREKFTAEELRKAAEGYLEAATSRYNELVERGEAALERLRSQQSFEEVSARAEGYVDQAVELTQEALGTVASQTRAVGERAAKLVGIELPKKAAPAKKAAPAKKAAPAKKAAAKKAPAKKAAAKKVTQK",glycan array binding signal (z-score),[1],-0.263
same,glycan array binding signal (z-score),Fuc(a1-3)GlcNAc,-0.031
same,glycan array binding signal (z-score),[2],-0.398
same,glycan array binding signal (z-score),[3],0.17
same,glycan array binding signal (z-score),[4],-0.386
same,glycan array binding signal (z-score),[5],-0.415
same,glycan array binding signal (z-score),[6],-0.376
same,glycan array binding signal (z-score),[7],-0.289
same,glycan array binding signal (z-score),[8],0.799
same,glycan array binding signal (z-score),[9],-0.439
same,glycan array binding signal (z-score),[10],-0.275
same,glycan array binding signal (z-score),[11],0.48
same,glycan array binding signal (z-score),[12],-0.459
same,glycan array binding signal (z-score),[13],-0.092
same,glycan array binding signal (z-score),[14],-0.017
same,glycan array binding signal (z-score),[15],0.805
same,glycan array binding signal (z-score),[16],0.764
same,glycan array binding signal (z-score),[17],0.011
same,glycan array binding signal (z-score),[18],-0.333
same,glycan array binding signal (z-score),Fuc(a1-4)GlcNAc,20
same,glycan array binding signal (z-score),Fuc(b1-3)GlcNAc,0.094
same,glycan array binding signal (z-score),Gal(a1-2)Gal,0.589
same,glycan array binding signal (z-score),Gal(a1-3)Gal,0.529
same,glycan array binding signal (z-score),Gal(a1-3)Gal(b1-3)GlcNAc,0.9
same,glycan array binding signal (z-score),[19],-0.316
same,glycan array binding signal (z-score),[20],-0.461
same,glycan array binding signal (z-score),[21],-0.376
same,glycan array binding signal (z-score),[22],-0.236
same,glycan array binding signal (z-score),[23],-0.387
same,glycan array binding signal (z-score),Gal(a1-3)Gal(b1-4)Glc,0.177
same,glycan array binding signal (z-score),Gal(a1-3)Gal(b1-4)GlcNAc,0.425
same,glycan array binding signal (z-score),[24],-0.324
same,glycan array binding signal (z-score),[25],-0.371
same,glycan array binding signal (z-score),[26],-0.31
same,glycan array binding signal (z-score),[27],0.154
same,glycan array binding signal (z-score),[28],0.246
same,glycan array binding signal (z-score),[29],-0.435
same,glycan array binding signal (z-score),Gal(a1-3)GalNAc,-0.259
same,glycan array binding signal (z-score),[30],0.684
same,glycan array binding signal (z-score),[31],-0.281
same,glycan array binding signal (z-score),Gal(a1-4)Gal(b1-4)Glc,-0.228
same,glycan array binding signal (z-score),Gal(a1-4)Gal(b1-4)GlcNAc,-0.136
same,glycan array binding signal (z-score),[32],-0.438
same,glycan array binding signal (z-score),[33],-0.423
same,glycan array binding signal (z-score),Gal(a1-4)GlcNAc,0.363
